Positions count from the first letter of the chain named. Some of the results follow.
T1: RBFOX1 RRM (Homo sapiens, UniProt Q9NWB1 109-208)
T1 sequence: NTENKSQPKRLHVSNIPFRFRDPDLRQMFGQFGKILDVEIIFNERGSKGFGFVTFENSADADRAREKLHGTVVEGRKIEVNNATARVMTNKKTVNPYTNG

B1: UUAUAUG (DNA:RNA)
RNA: GGGAGACCGGAAUUCAGAUUGUCCUUAUAUGUUAAAUCCCGUCGUAGCCACCA
DNA 1: CAATCTGAATTCCGGTCTCCC
DNA 2: TGGTGGCTACGACGGGATT
B2: GUCGCGC (DNA:RNA)
RNA: B1 RNA with U25G, A27C, U28G, A29C, U30G, G31C
DNA 1: CAATCTGAATTCCGGTCTCCC
DNA 2: TGGTGGCTACGACGGGATT
B3: UAAACGA (DNA:RNA)
RNA: B1 RNA with U26A, U28A, A29C, U30G, G31A
DNA 1: CAATCTGAATTCCGGTCTCCC
DNA 2: TGGTGGCTACGACGGGATT
B4: GCCCCCA (DNA:RNA)
RNA: GGGAGACCGGAAUUCAGAUUGUCCGCCCCCAUUAAAUCCCGUCGUAGCCACCA
DNA 1: CAATCTGAATTCCGGTCTCCC
DNA 2: TGGTGGCTACGACGGGATT
B5: GCAGUCC (DNA:RNA)
RNA: B4 RNA with C27A, C28G, C29U, A31C
DNA 1: CAATCTGAATTCCGGTCTCCC
DNA 2: TGGTGGCTACGACGGGATT
B6: UCUAGUU (DNA:RNA)
RNA: B1 RNA with U26C, A27U, U28A, A29G, G31U
DNA 1: CAATCTGAATTCCGGTCTCCC
DNA 2: TGGTGGCTACGACGGGATT
B7: CCUUGUA (DNA:RNA)
RNA: B4 RNA with G25C, C27U, C28U, C29G, C30U
DNA 1: CAATCTGAATTCCGGTCTCCC
DNA 2: TGGTGGCTACGACGGGATT
B8: CCGAUUU (DNA:RNA)
RNA: B4 RNA with G25C, C27G, C28A, C29U, C30U, A31U
DNA 1: CAATCTGAATTCCGGTCTCCC
DNA 2: TGGTGGCTACGACGGGATT
B9: GAGUACU (DNA:RNA)
RNA: B4 RNA with C26A, C27G, C28U, C29A, A31U
DNA 1: CAATCTGAATTCCGGTCTCCC
DNA 2: TGGTGGCTACGACGGGATT
B10: UCGCCCC (DNA:RNA)
RNA: B4 RNA with G25U, C27G, A31C
DNA 1: CAATCTGAATTCCGGTCTCCC
DNA 2: TGGTGGCTACGACGGGATT
B11: CCUUAUA (DNA:RNA)
RNA: B1 RNA with U25C, U26C, A27U, G31A
DNA 1: CAATCTGAATTCCGGTCTCCC
DNA 2: TGGTGGCTACGACGGGATT
B12: ACGGACA (DNA:RNA)
RNA: B4 RNA with G25A, C27G, C28G, C29A
DNA 1: CAATCTGAATTCCGGTCTCCC
DNA 2: TGGTGGCTACGACGGGATT
B13: GGCCCGU (DNA:RNA)
RNA: B4 RNA with C26G, C30G, A31U
DNA 1: CAATCTGAATTCCGGTCTCCC
DNA 2: TGGTGGCTACGACGGGATT
B14: AUAACCA (DNA:RNA)
RNA: B4 RNA with G25A, C26U, C27A, C28A
DNA 1: CAATCTGAATTCCGGTCTCCC
DNA 2: TGGTGGCTACGACGGGATT
B15: AAGAACU (DNA:RNA)
RNA: B4 RNA with G25A, C26A, C27G, C28A, C29A, A31U
DNA 1: CAATCTGAATTCCGGTCTCCC
DNA 2: TGGTGGCTACGACGGGATT
B16: AAUACCA (DNA:RNA)
RNA: B4 RNA with G25A, C26A, C27U, C28A
DNA 1: CAATCTGAATTCCGGTCTCCC
DNA 2: TGGTGGCTACGACGGGATT
B17: CCGGGAG (DNA:RNA)
RNA: B4 RNA with G25C, C27G, C28G, C29G, C30A, A31G
DNA 1: CAATCTGAATTCCGGTCTCCC
DNA 2: TGGTGGCTACGACGGGATT
B18: UAAUUGG (DNA:RNA)
RNA: B1 RNA with U26A, A29U, U30G
DNA 1: CAATCTGAATTCCGGTCTCCC
DNA 2: TGGTGGCTACGACGGGATT
B19: AAGCCUC (DNA:RNA)
RNA: B4 RNA with G25A, C26A, C27G, C30U, A31C
DNA 1: CAATCTGAATTCCGGTCTCCC
DNA 2: TGGTGGCTACGACGGGATT
B20: GUUUUGC (DNA:RNA)
RNA: B1 RNA with U25G, A27U, A29U, U30G, G31C
DNA 1: CAATCTGAATTCCGGTCTCCC
DNA 2: TGGTGGCTACGACGGGATT
B21: UAUGGAC (DNA:RNA)
RNA: B1 RNA with U26A, A27U, U28G, A29G, U30A, G31C
DNA 1: CAATCTGAATTCCGGTCTCCC
DNA 2: TGGTGGCTACGACGGGATT
B22: ACGUUUG (DNA:RNA)
RNA: B1 RNA with U25A, U26C, A27G, A29U
DNA 1: CAATCTGAATTCCGGTCTCCC
DNA 2: TGGTGGCTACGACGGGATT
B23: GACUCAU (DNA:RNA)
RNA: B4 RNA with C26A, C28U, C30A, A31U
DNA 1: CAATCTGAATTCCGGTCTCCC
DNA 2: TGGTGGCTACGACGGGATT
B24: UUAGUGC (DNA:RNA)
RNA: B1 RNA with U28G, A29U, U30G, G31C
DNA 1: CAATCTGAATTCCGGTCTCCC
DNA 2: TGGTGGCTACGACGGGATT
B25: GCUUCCG (DNA:RNA)
RNA: B4 RNA with C27U, C28U, A31G
DNA 1: CAATCTGAATTCCGGTCTCCC
DNA 2: TGGTGGCTACGACGGGATT
B26: GAUGGUU (DNA:RNA)
RNA: B4 RNA with C26A, C27U, C28G, C29G, C30U, A31U
DNA 1: CAATCTGAATTCCGGTCTCCC
DNA 2: TGGTGGCTACGACGGGATT
B27: CGGCCAA (DNA:RNA)
RNA: B4 RNA with G25C, C26G, C27G, C30A
DNA 1: CAATCTGAATTCCGGTCTCCC
DNA 2: TGGTGGCTACGACGGGATT
B28: CUGGGCG (DNA:RNA)
RNA: B1 RNA with U25C, A27G, U28G, A29G, U30C
DNA 1: CAATCTGAATTCCGGTCTCCC
DNA 2: TGGTGGCTACGACGGGATT
B29: CGGGUUG (DNA:RNA)
RNA: B1 RNA with U25C, U26G, A27G, U28G, A29U
DNA 1: CAATCTGAATTCCGGTCTCCC
DNA 2: TGGTGGCTACGACGGGATT
B30: UAUCUGU (DNA:RNA)
RNA: B4 RNA with G25U, C26A, C27U, C29U, C30G, A31U
DNA 1: CAATCTGAATTCCGGTCTCCC
DNA 2: TGGTGGCTACGACGGGATT
B31: GUUUGAU (DNA:RNA)
RNA: B1 RNA with U25G, A27U, A29G, U30A, G31U
DNA 1: CAATCTGAATTCCGGTCTCCC
DNA 2: TGGTGGCTACGACGGGATT

Target: T1, RBFOX1 RRM
Assay: EMSA; HiTS-Eq, 1 nM pool, 10 min; buffer printed only for the single-RNA assays: 10 mM Tris pH 7.5, 150 mM NaCl, 3.4 mM EDTA, 0.001% NP-40, 30 C
Conditions: tags: His6 N-terminal (pET28a); label: 5' 32P
Summary of the method: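 These values rest on relative association constants, computed from read-count changes of each RNA species versus the control reaction and normalised to the cognate motif. Reads came from free RNA recovered by 8% native PAGE after purified RbFox RRM (wild type or mutant) at increasing concentrations was equilibrated for 10 min in 50 µL with 1 nM of a 5′-radiolabelled pool with 7 randomized nucleotides and DNA-annealed flanks.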

Binder	binding signal
B1	0.00888 KA relative to UGCAUGU
B2	0.0169 KA relative to UGCAUGU
B3	0.0066 KA relative to UGCAUGU
B4	0.00457 KA relative to UGCAUGU
B5	0.0101 KA relative to UGCAUGU
B6	0.00906 KA relative to UGCAUGU
B7	0.0102 KA relative to UGCAUGU
B8	0.0105 KA relative to UGCAUGU
B9	0.00657 KA relative to UGCAUGU
B10	0.00674 KA relative to UGCAUGU
B11	0.00117 KA relative to UGCAUGU
B12	0.000702 KA relative to UGCAUGU
B13	0.0137 KA relative to UGCAUGU
B14	0.000262 KA relative to UGCAUGU
B15	0.00211 KA relative to UGCAUGU
B16	0.00351 KA relative to UGCAUGU

Binder	binding signal
B17	0.0126 KA relative to UGCAUGU
B18	0.0122 KA relative to UGCAUGU
B19	0.00785 KA relative to UGCAUGU
B20	0.0225 KA relative to UGCAUGU
B21	0.00325 KA relative to UGCAUGU
B22	0.021 KA relative to UGCAUGU
B23	0.00759 KA relative to UGCAUGU
B24	0.0198 KA relative to UGCAUGU
B25	0.0121 KA relative to UGCAUGU
B26	0.0267 KA relative to UGCAUGU
B27	0.008 KA relative to UGCAUGU
B28	0.0239 KA relative to UGCAUGU
B29	0.0491 KA relative to UGCAUGU
B30	0.0154 KA relative to UGCAUGU
B31	0.0191 KA relative to UGCAUGU

From PMC9911399, “Two distinct binding modes provide the RNA-binding protein RbFox with extraordinary sequence specificity”
